In publication PMC6605747:
Results are given in words; binding and its absence hold for the method and conditions named. For some of these results: Binding seen in cells or lysates may run through a third protein. Some results given as binding are weak or reduced against the parent protein; the word gives no strength. For some of these results: Tags and fused reporters may be left off the sequences shown.

Amino acid sequences for entries named in this document (tags omitted). A change or cut given only in a name is not applied to a line headed by its entry. Chains listed by the source or under a name are the forms on record and can include a tag or linker. Residues count along the entry.
UniProt Q63829: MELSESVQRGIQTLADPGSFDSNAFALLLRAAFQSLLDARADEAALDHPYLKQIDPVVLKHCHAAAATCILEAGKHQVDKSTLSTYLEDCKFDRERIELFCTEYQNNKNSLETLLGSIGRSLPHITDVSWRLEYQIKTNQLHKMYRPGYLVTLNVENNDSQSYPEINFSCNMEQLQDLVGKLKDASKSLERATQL
UniProt P70658: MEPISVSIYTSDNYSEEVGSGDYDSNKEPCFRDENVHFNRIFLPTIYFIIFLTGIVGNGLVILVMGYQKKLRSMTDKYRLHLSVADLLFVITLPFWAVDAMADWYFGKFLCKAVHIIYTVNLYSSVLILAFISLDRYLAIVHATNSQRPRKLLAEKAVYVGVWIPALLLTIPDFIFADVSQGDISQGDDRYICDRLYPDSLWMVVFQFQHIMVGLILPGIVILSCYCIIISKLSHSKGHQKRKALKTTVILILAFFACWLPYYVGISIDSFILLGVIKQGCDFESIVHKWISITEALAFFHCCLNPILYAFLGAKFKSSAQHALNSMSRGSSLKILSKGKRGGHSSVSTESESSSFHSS
CXCR4 S353-355A, Flag-tagged, C-terminally fused via a TEV protease cleavage site to tTA (P70658, form named): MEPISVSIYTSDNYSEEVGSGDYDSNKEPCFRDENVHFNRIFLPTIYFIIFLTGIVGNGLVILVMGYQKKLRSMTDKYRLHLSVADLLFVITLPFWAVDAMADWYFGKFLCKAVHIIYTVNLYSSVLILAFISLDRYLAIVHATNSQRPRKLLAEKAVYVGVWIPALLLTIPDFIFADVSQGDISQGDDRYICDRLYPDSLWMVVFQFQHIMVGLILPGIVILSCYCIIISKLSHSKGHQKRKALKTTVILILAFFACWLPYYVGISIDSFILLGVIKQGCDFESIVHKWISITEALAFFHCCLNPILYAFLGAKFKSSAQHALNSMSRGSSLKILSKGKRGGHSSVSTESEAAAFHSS
UniProt P18762: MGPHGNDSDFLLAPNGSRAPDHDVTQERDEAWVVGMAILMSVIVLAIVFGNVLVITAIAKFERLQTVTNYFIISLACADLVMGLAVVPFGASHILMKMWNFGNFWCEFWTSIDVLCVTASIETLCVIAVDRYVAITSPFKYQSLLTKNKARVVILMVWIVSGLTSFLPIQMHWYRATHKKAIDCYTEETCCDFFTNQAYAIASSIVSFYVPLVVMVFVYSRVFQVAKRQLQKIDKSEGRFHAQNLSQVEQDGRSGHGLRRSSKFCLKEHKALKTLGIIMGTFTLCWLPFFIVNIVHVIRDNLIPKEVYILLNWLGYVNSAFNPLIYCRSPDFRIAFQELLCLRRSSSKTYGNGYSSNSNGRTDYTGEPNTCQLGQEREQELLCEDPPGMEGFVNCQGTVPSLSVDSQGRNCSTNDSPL
UniProt Q3U6B2: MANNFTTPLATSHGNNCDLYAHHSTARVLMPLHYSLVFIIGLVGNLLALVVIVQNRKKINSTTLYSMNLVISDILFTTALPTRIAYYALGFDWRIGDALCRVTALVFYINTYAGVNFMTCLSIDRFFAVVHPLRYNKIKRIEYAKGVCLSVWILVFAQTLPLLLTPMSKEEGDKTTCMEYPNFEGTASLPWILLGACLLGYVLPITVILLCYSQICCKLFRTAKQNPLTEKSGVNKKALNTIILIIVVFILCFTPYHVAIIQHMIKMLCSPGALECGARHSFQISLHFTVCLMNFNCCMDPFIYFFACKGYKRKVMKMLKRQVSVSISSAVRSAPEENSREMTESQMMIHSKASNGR
UniProt O08530: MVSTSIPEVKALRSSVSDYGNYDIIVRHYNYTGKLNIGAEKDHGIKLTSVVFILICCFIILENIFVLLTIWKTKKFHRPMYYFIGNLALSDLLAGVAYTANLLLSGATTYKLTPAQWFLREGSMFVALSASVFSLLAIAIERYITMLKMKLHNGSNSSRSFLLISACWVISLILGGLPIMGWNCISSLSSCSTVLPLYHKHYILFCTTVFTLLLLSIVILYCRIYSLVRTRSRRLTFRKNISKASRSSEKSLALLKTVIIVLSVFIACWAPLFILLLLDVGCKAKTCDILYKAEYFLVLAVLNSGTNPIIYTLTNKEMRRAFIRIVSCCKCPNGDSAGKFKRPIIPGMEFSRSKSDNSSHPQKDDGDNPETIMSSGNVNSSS
UniProt P47774, residues 25-378: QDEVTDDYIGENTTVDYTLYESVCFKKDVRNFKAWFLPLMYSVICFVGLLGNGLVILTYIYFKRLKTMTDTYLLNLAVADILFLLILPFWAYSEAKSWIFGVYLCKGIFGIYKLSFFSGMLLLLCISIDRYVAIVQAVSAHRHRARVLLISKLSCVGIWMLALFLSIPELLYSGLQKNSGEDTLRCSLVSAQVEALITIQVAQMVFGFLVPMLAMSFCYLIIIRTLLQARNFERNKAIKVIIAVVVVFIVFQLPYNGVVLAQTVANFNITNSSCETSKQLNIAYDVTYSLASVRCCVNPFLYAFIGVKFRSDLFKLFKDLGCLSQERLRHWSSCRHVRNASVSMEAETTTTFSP
UniProt Q04683: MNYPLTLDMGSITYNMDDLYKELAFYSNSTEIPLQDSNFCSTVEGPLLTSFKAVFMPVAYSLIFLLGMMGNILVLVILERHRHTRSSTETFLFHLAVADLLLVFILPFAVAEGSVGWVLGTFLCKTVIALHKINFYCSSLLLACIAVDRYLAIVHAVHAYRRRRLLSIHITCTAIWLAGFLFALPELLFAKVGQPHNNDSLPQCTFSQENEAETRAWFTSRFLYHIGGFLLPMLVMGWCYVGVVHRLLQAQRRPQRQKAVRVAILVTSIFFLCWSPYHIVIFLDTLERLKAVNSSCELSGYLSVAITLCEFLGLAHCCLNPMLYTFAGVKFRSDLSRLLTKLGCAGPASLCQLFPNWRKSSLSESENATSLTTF
UniProt Q99MK8: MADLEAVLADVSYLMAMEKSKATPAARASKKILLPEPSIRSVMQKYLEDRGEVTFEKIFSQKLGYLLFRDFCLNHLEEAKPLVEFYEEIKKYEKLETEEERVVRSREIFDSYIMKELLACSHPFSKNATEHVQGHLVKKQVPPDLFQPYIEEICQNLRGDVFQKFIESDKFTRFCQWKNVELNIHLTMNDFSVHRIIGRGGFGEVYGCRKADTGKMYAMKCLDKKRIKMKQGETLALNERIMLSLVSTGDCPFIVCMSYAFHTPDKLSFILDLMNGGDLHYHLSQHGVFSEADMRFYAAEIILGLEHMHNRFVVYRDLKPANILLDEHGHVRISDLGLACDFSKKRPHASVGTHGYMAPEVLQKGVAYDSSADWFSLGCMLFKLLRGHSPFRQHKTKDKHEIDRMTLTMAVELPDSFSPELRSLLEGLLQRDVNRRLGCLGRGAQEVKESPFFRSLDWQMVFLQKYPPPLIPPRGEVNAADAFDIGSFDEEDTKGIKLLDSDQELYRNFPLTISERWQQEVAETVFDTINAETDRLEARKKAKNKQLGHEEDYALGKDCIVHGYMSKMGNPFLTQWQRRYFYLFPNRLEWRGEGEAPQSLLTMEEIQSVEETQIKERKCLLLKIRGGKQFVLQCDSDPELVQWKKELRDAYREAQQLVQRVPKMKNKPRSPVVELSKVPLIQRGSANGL
UniProt O70293: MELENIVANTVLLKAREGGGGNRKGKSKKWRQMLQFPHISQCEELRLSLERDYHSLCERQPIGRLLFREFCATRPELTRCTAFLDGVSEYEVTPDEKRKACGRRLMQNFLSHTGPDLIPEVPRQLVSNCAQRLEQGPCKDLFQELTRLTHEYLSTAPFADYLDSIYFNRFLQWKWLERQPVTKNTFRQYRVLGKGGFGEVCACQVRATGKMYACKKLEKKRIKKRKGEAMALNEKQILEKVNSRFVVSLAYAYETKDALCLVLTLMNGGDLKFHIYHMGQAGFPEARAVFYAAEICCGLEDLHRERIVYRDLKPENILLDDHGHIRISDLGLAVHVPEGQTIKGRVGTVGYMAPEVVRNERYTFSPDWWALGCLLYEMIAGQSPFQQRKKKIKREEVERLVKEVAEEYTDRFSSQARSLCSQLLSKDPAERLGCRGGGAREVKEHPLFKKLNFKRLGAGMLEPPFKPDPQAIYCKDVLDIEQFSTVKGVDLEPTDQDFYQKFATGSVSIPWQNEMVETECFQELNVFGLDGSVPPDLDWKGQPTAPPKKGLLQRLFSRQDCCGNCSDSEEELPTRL
UniProt Q91YI4: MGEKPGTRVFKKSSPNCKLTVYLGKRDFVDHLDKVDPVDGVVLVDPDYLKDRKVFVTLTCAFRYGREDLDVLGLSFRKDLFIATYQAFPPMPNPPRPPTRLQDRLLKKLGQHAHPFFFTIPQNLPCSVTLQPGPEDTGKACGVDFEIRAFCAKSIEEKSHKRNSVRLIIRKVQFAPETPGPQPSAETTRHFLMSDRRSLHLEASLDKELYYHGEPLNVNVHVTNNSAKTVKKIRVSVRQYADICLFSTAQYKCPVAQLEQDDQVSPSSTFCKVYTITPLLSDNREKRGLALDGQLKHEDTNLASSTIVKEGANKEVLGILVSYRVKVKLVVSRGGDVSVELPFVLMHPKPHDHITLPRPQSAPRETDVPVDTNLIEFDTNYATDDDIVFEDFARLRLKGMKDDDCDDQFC

What was measured:
[1] = biological target: T1, Myc-tagged COMMD8 (mouse) (mouse) (UniProt Q9CZG3); assay: co-IP; tagged COMMD8, COMMD3 and their truncation mutants in transduced 2PK-3 cells; digitonin lysis buffer
T1 sequence: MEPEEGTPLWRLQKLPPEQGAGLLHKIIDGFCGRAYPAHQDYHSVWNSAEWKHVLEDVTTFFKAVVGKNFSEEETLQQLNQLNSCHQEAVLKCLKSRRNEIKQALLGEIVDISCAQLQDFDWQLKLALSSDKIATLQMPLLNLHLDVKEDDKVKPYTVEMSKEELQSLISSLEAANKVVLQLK

[2] = biological target: T2, COMMD8, endogenous, mouse (mouse (endogenous in spleen cells and primary B cells)) (UniProt Q9CZG3); assay: co-IP; endogenous proteins in mouse spleen cells; digitonin lysis buffer (1% digitonin, 0.125% NP-40, 150 mM NaCl, 10 mM Tris-HCl, pH 7.2)
T2 sequence: T1 sequence

[3] = biological target: COMMD3 with a Myc or HA tag (mouse) (mouse) (UniProt Q63829); assay: co-IP; transduced 2PK-3 cells, 30 min in RPMI with 0.5% fatty acid-free BSA, then stimulated with the receptor's ligand (CXCL12, CXCL13, CCL19, 7α,25-HC, S1P or clenbuterol); digitonin lysis buffer; also in GRK6-deficient cells
[4] = biological target: T1, Myc-tagged COMMD8 (mouse) (mouse); assay: as above
[5] = biological target: Flag-tagged CXCR4 (mouse) (mouse) (UniProt P70658); assay: co-IP; 2PK-3 cells (vector control, sgCommd8 or sgCommd3), 30 min or 2 h in HBSS with 10 mM Hepes, then CXCL12 (100 ng/ml) or isoproterenol (1 µM); digitonin lysis buffer
[6] = biological target: Flag-tagged β2AR (mouse) (mouse) (UniProt P18762); assay: as above
[7] = biological target: Flag-tagged CXCR4 (mouse) (mouse) (UniProt P70658); assay: co-IP; transduced 2PK-3 cells, 30 min in RPMI with 0.5% fatty acid-free BSA, then stimulated with the receptor's ligand (CXCL12, CXCL13, CCL19, 7α,25-HC, S1P or clenbuterol); digitonin lysis buffer; also in GRK6-deficient cells
[8] = biological target: Flag-tagged EBI2 (mouse) (mouse) (UniProt Q3U6B2); assay: as above
[9] = biological target: Flag-tagged S1PR1 (mouse) (mouse) (UniProt O08530); assay: as above
[10] = biological target: Flag-tagged CCR7 (mouse) (mouse) (UniProt P47774); assay: as above
[11] = biological target: Flag-tagged CXCR5 (mouse) (mouse) (UniProt Q04683); assay: as above
[12] = biological target: CXCR4 S353-355A, Flag-tagged, C-terminally fused via a TEV protease cleavage site to tTA (mouse) (UniProt P70658); assay: Tango assay (TEV protease cleavage releases tTA, luciferase reporter); HTL cells transfected with GPCR-TEV cleavage site-tTA and COMMD8-TEV protease; stimulated with CXCL12 (10 ng/ml) or isoproterenol (1 nM) for 12 h; with or without paroxetine
[13] = biological target: Flag-tagged mouse CXCR4 C-terminally fused via a TEV protease cleavage site to tTA (mouse) (UniProt P70658); assay: as above
[14] = biological target: CXCR4, endogenous, mouse primary B cells (mouse (endogenous in primary B cells)) (UniProt P70658); assay: co-IP; endogenous proteins in mouse primary B cells stimulated with CXCL12 (600 ng/ml); digitonin lysis buffer

## COMMD3 with a Myc or HA tag (mouse) (from UniProt Q63829 1-195)
[1]
  binding: binds

## COMMD3, endogenous, mouse (from UniProt Q63829 1-195)
[2]
  binding: binds

## HA-tagged GRK2 (mouse) (from UniProt Q99MK8 1-689) (enzyme)
[3]
  binding: no binding
[4]
  binding: no binding

## HA-tagged GRK6 (mouse) (from UniProt O70293 1-576) (enzyme)
[3]
  binding: binds
[4]
  binding: binds

## β-arrestin-2, endogenous, 2PK-3 cells (from UniProt Q91YI4 1-410)
[5]
  binding: binds
[6]
  binding: binds

B1: Myc-tagged COMMD8 (mouse) (protein, UniProt Q9CZG3 1-183)
chain: T1 sequence
[7]
  binding: binds
[8]
  binding: binds
[9]
  binding: binds weakly
[10]
  binding: binds
[11]
  binding: binds

B2: Myc-tagged COMMD8 C-terminally fused to TEV protease (protein, UniProt Q9CZG3 1-183)
chain: T1 sequence
[12]
  binding: no binding
[13]
  binding: binds

B3: COMMD8, endogenous, mouse (protein, UniProt Q9CZG3 1-183)
chain: T1 sequence
[14]
  binding: binds
